Assay results from PubChem BioAssay AID1030 (National Center for Advancing Translational Sciences (NCATS), 2008).
Out of some 220,000 compounds screened, about 16,000 (7.3%) were called active. Inconclusive means that the source gave no clear call. Such entries were picked first, then a sample of the others. Calls come from the whole dose curve; as a rule, active = well fitted inhibition curve with a large enough effect (not every such curve was filed as active); inconclusive = small, poorly fitted or top-dose-only effect, or another doubt; inactive = no such curve, though single readings can be large or run the other way. No potency is given beside an inconclusive call; the fits are too rough.

target: Aldehyde dehydrogenase 1A1 (Homo sapiens) (UniProt P00352); test: qHTS Assay for Inhibitors of Aldehyde Dehydrogenase 1 (ALDH1A1); settings: Purified ALDH1A1, NADH fluorescence, propionaldehyde substrate; series mostly up to 75.3 µM; activity, negative = inhibition: at the top concentration;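 for activity, negative = inhibition: plate controls were no enzyme wells and a reference inhibitor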
Chain of UniProt P00352 (P00352 whole entry, looked up): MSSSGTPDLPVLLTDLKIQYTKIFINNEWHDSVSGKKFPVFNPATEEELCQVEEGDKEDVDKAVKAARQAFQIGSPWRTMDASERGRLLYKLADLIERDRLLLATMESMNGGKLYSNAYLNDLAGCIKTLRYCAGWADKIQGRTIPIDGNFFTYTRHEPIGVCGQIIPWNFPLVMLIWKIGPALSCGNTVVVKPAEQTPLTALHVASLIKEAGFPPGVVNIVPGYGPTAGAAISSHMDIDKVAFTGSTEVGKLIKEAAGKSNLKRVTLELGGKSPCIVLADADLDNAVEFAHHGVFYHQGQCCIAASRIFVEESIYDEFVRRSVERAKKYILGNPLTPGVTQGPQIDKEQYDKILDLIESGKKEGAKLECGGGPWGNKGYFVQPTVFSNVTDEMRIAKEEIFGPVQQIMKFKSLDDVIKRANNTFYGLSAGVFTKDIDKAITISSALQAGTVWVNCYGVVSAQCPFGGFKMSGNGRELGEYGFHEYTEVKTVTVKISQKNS
Potency is the fitted concentration of half-maximal effect; tags give direction and shape of the fitted curve.

Structure (SMILES)	Potency	activity, negative = inhibition
C=CCc1c(C)nc(-c2ccccc2)nc1N/N=C(\C)c1ccc(N)cc1	inconclusive [inhibitor, single point]	–
C=CCNC(=S)NNC(=O)C(CCC(C)C)CC(C)(C)O (stereo unspecified)	–	inactive: -4.36%
Cc1ccc(Cl)c(NC(=O)COC(=O)CNS(=O)(=O)/C=C/c2ccccc2)c1Cl	–	inactive: 9.94%
CCOC(=O)C1(Cc2cccc(OC)c2)CCCN(C(=O)c2cc(C)[nH]n2)C1 (stereo unspecified)	inconclusive [inhibitor, single point]	–
COc1ccc(N2CCN(c3ncccc3C#N)CC2)cc1	inconclusive [inhibitor, single point]	–
O=C(Nc1ccc2c(c1)OCO2)c1cnn2cccnc12	inconclusive [inhibitor, single point]	–
Cc1ccc(Oc2ccc(N)cc2)cc1	active: 17.8 µM	–
Cc1ccc(NC(=O)C2CC(=O)Nc3nncn32)cc1 (stereo unspecified)	inconclusive [inhibitor, single point]	–
CC(C)c1ccc(OCC(=O)N(c2ccccn2)C2CCCCC2)cc1	inconclusive [inhibitor, single point]	–
O=C1CN(C(=O)COC(=O)C2CC(=O)N(Cc3ccco3)C2)c2ccccc2N1 (stereo unspecified)	inconclusive [inhibitor, single point]	–
O=C(O)c1cc(NC(=O)c2ccc(Cl)c([N+](=O)[O-])c2)cc(C(=O)O)c1	inconclusive [inhibitor, single point]	–
Cc1cc(C(=O)CSC(C)c2nc3ccccc3c(=O)[nH]2)c(C)n1C (stereo unspecified)	–	inactive: 14.5%
CCCc1nc2oc(C(=O)OCC)c(N)c2c2c1COC(C)(C)C2	inconclusive [inhibitor, partial curve]	–
Cc1cc(=O)oc2cc(NC(=O)CC3(CC(=O)O)CCCC3)ccc12	inconclusive [inhibitor, partial curve]	–
O=C(O)CCC(=O)Nc1ccc(C(=O)OC2CCCCC2)cc1	–	inactive: -11.9%
COC(=O)c1cc(-c2c(C)oc3cc(O)ccc3c2=O)c(C)o1	inconclusive [inhibitor, partial curve]	–
COc1cc(C2CC(=O)c3cnc(N4CCN(Cc5ccccc5)CC4)nc3C2)cc(OC)c1OC (stereo unspecified)	inconclusive [inhibitor, partial curve]	–
CCOC(=O)c1cc2c(=O)n3ccccc3nc2n(Cc2ccccc2)c1=N	inconclusive [inhibitor, partial curve]	–
COc1ccc2c(c1)-c1c(sn(-c3ccccc3)c1=S)C(C)(C)N2	–	inactive: 6.5%
CCN(CC)CCN1C(=O)c2ccccc2NC1c1ccccc1F (stereo unspecified)	inconclusive [inhibitor, single point]	–
Cc1cccc(OCCn2nc(C(=O)O)c3ccccc3c2=O)c1	–	inactive: -11.8%
COc1ccc(N2CCN(CC(=O)Nc3nc4c(s3)CC(C)CC4)CC2)cc1 (stereo unspecified)	inconclusive [inhibitor, single point]	–
COc1ccc(S(=O)(=O)N/N=C(/C)c2ccc(Cl)cc2)cc1	inconclusive [inhibitor, partial curve]	–
N#Cc1cccc(NC(=O)CSc2n[nH]c(=O)[nH]c2=O)c1	inconclusive [inhibitor, single point]	–

Structure (SMILES)	Potency	activity, negative = inhibition
Cc1ccc(OCCN2CCN(c3nc(NCc4ccco4)c4ccccc4n3)CC2)cc1	inconclusive [inhibitor, single point]	–
CCOC(=O)CCn1nnc(N)n1	inconclusive [inhibitor, full curve, poor fit]	–
CCOC(=O)N1CCN(C(=O)CCc2c(C)nc3c(c(C)nn3-c3ccc(C)c(C)c3)c2C)CC1	inconclusive [inhibitor, partial curve]	–
O=c1c(-c2ccc(F)cc2)nc2cnc(N3CCNCC3)nc2n1C1CC1	inconclusive [inhibitor, partial curve]	–
O=C(O)C1C2C=CC3(CN(Cc4ccccn4)C(=O)C13)O2 (stereo unspecified)	–	inactive: 6.17%
CCOC(=O)c1c(NC(=O)CSc2nc3nc(C)cc(C)n3n2)sc(CC)c1C	–	inactive: 15.8%
CC/C(C)=N/Nc1nc2c(c(=O)[nH]c(=O)n2C)n1CCc1ccccc1	inconclusive [inhibitor, single point]	–
Cc1ccc(N2C(=O)c3ccccc3C2C(=O)c2ccc(C)c(C)c2O)cc1 (stereo unspecified)	inconclusive [inhibitor, single point]	–
O=C(Nc1ccc(F)c(F)c1)c1cc(S(=O)(=O)N2CCN(c3ccccn3)CC2)ccc1F	–	inactive: 8.26%
Cc1c(Br)c(=O)oc2c(C)c(O)ccc12	inconclusive [inhibitor, single point]	–
CCCNS(=O)(=O)c1ccc(OCC(=O)NCc2ccco2)cc1	inconclusive [inhibitor, single point]	–
CC(=O)c1ccc(NC(=O)CCNS(=O)(=O)c2cccc3nonc23)cc1	inconclusive [inhibitor, single point]	–
Cc1cccc(C)c1NC(=O)CSc1nnc(C)n1CC1CCCO1 (stereo unspecified)	inconclusive [inhibitor, single point]	–
CCOC(=O)c1oc2ccccc2c1CN1CCN(C(=O)c2ccccc2)CC1	active: 20 µM	–
COc1ccc(N2CCn3c2nc2c3c(=O)n(CCc3ccccc3)c(=O)n2C)cc1	inconclusive [inhibitor, single point]	–
CCOc1cc(CNc2ccc(N3CCOCC3)cc2)cc(Br)c1OCC	inconclusive [inhibitor, single point]	–
CC1OC2(C)OC(=N)C1(C#N)C(C#N)(C#N)C2c1ccccc1 (stereo unspecified)	inconclusive [inhibitor, partial curve]	–
Oc1cc(O)c2c(c1)OC(c1ccc(O)c(O)c1)C(O)C2 (stereo unspecified)	active: 10 µM	–
O=C(CCc1ccccc1)NCCc1cccs1	–	inactive: 2.95%
CC(C)Nc1nc(Oc2ccc(Cl)cc2Cl)cc(C(F)(F)F)n1	inconclusive [inhibitor, single point]	–
CCCN1Cc2cccc(C(=O)NCCCOC(C)C)c2C1=O	active: 22.4 µM	–
CCCc1cc(=O)oc2cc(OCC(=O)NCc3cccs3)ccc12	inconclusive [inhibitor, partial curve]	–
C1CCN(c2nc3nonc3nc2N2CCCCC2)CC1	inconclusive [inhibitor, partial curve]	–
COc1ccc(NC(=O)CSCc2ccccc2C)cc1	inconclusive [inhibitor, single point]	–

Structure (SMILES)	Potency	activity, negative = inhibition
COc1ccc(C2=CC(c3c(C)nn(-c4ccccc4)c3Cl)n3nnnc3N2)cc1OC (stereo unspecified)	inconclusive [inhibitor, single point]	–
Cc1cc(C)n2cc(CSc3nnnn3C)nc2n1	inconclusive [inhibitor, single point]	–
Clc1cccc(NCc2cn3cccnc3n2)c1	–	inactive: 11.9%
O=C(O)c1cccc(-n2cccc2/C=C\[N+](=O)[O-])c1	inconclusive [inhibitor, single point]	–
c1csc(C2=NNC(=NC3CCCCC3)SC2)c1	inconclusive [inhibitor, single point]	–
Cc1ccc2nsnc2c1S(=O)(=O)Nc1cccc2nsnc12	inconclusive [inhibitor, single point]	–
CC(C)c1ccc(Nc2nc(CC(=O)O)cs2)cc1	inconclusive [inhibitor, single point]	–
N#Cc1ccccc1-n1c(N)c(C(=O)N2CCCC2)sc1=S	active: 11.2 µM	–
COC(=O)c1ccc(CSc2nnnn2Cc2ccccc2)cc1	inconclusive [inhibitor, partial curve]	–
COc1ccc(CCCc2nnc(SCC(=O)Nc3cc(C)c(C)cc3Br)o2)cc1	–	inactive: -12.3%
COCCCN(C(=S)NC(=O)c1ccc(C(C)(C)C)cc1)c1c(N)n(Cc2ccccc2)c(=O)[nH]c1=O	inconclusive [inhibitor, single point]	–
Cc1ccnc(NC(=O)c2cc([N+](=O)[O-])cc([N+](=O)[O-])c2)c1	–	inactive: 7.01%
CCCn1nc2cc(C(=O)NCc3ccccc3OC)ccc2c1OCC	inconclusive [inhibitor, partial curve]	–
O=C(c1ccco1)N1CCN(S(=O)(=O)c2ccc3c(c2)CCN3C(=O)C2CC2)CC1	inconclusive [inhibitor, single point]	–
CCOC(=O)C1=C(C)NC(=O)NC1c1ccc(-c2ccc(Cl)cc2)o1 (stereo unspecified)	–	inactive: 6.42%
O=C(NC(=S)NCCC1=CCCCC1)c1cncc(Br)c1	inconclusive [inhibitor, partial curve]	–
O=C1OC(=O)c2c(Cl)c(Cl)c(Cl)c(Cl)c21	inconclusive [inhibitor, single point]	–
Cc1nc2sc(C(c3ccccc3)N3CCOCC3)c(O)n2n1 (stereo unspecified)	–	inactive: 4.75%
CC(C)(C)c1ccc(S(=O)(=O)NCC(=O)N2CCN(C(=O)c3ccco3)CC2)cc1	active: 1.58 µM	–
O=C(OCc1nnc(-c2ccccc2)o1)c1ccco1	inconclusive [inhibitor, single point]	–
O=C1c2ccccc2CCC1CNCCc1ccc(O)cc1 (stereo unspecified)	inconclusive [inhibitor, partial curve]	–
CC(C)(C)C1CCC(C(=O)OCC(=O)N2CCN(C(=O)c3ccco3)CC2)CC1 (stereo unspecified)	–	inactive: -0.79%
N#CC(=NCCO)C1=C(O)c2ccccc2C1=O	–	inactive: 7.48% [at 13.5 µM]
